{"source": "the supplement of paper PMC3334620", "note": "The full ranking holds about 33,000 sequences; the median of “E-score (-0.5 to 0.5)” is about -0.053, and the highest 2% start at about 0.37. This is one part of the list."}
{"target": "Hap1 (UniProt P0CE41)", "sequence (P0CE41 whole entry, the tested form may be a part)": "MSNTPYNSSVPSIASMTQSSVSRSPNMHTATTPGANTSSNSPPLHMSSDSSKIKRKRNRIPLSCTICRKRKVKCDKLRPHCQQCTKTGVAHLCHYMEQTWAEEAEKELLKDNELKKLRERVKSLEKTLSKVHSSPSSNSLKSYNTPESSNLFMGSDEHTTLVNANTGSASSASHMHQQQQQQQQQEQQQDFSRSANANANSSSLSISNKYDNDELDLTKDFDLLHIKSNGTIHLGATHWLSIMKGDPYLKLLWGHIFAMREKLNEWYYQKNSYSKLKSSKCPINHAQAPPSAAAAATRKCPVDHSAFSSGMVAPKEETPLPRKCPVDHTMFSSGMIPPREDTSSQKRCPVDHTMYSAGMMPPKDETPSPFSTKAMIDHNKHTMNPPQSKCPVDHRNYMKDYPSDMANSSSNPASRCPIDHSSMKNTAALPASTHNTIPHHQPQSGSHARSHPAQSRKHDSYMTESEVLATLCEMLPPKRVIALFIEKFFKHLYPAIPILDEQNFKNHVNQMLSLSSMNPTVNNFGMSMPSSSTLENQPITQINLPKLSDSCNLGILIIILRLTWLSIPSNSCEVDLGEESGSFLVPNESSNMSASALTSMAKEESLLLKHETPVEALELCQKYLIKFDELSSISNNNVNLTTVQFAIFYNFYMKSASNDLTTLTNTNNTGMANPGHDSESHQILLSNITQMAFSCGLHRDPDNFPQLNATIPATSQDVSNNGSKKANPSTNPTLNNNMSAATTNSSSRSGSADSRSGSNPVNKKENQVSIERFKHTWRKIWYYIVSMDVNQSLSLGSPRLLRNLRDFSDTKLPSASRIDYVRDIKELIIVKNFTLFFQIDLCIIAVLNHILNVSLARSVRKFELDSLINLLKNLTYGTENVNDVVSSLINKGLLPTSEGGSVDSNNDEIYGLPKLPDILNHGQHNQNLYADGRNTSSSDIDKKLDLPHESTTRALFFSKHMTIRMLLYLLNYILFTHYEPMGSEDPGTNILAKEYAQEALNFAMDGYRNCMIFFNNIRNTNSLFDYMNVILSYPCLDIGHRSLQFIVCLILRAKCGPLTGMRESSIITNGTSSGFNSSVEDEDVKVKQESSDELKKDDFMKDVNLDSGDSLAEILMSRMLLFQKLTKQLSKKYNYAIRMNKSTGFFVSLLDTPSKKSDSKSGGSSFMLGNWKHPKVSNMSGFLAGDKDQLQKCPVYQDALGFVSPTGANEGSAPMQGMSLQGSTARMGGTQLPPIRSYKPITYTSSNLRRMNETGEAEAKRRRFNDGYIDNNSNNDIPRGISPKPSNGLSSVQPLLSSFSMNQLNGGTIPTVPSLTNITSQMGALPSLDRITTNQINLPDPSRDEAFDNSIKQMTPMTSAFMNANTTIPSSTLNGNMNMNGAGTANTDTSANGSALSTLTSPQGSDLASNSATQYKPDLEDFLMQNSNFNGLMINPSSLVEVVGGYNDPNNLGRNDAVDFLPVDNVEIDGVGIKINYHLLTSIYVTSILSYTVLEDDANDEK", "assay": "PBM E-score (8-mer binding enrichment) (E-score (-0.5 to 0.5)); higher = stronger / more preferred TF binding; most listed sequences are background and not binding sites", "details": "protein concentration: 200 nM; construct: GST-DNA-binding domain", "outline": "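E-scores (a modified Wilcoxon-Mann-Whitney statistic) were assigned by the Universal PBM Analysis Suite to every ungapped eight-base word pooled with its reverse complement. The input came from universal all-10-mer Agilent arrays made double-stranded by primer extension and probed with GST-tagged yeast transcription factors at about 100-200 nM. Fluorescent anti-GST detected bound protein, and masliner normalised the scans.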"}
{"sequence": "GTTTGAGA", "PBM E-score": -0.304}
{"sequence": "TAAGCAAA", "PBM E-score": -0.0919}
{"sequence": "CAGTACCG", "PBM E-score": 0.229}
{"sequence": "GCAACGGA", "PBM E-score": 0.355}
{"sequence": "GAAAAATC", "PBM E-score": 0.0852}
{"sequence": "GACGTTTA", "PBM E-score": -0.287}
{"sequence": "CTGTCTAC", "PBM E-score": -0.201}
{"sequence": "ACTGGCCG", "PBM E-score": 0.212}
{"sequence": "AGGATGTA", "PBM E-score": -0.0846}
{"sequence": "ATAGAAGC", "PBM E-score": -0.0271}
{"sequence": "CGTAGAAC", "PBM E-score": -0.106}
{"sequence": "AACTCACC", "PBM E-score": 0.0211}
{"sequence": "ACAATCTC", "PBM E-score": -0.00292}
{"sequence": "CAGGGGGC", "PBM E-score": -0.187}
{"sequence": "AGCGGTAG", "PBM E-score": -0.18}
{"sequence": "GCCCGCGA", "PBM E-score": 0.0967}
{"sequence": "GTCCTGGA", "PBM E-score": -0.21}
{"sequence": "AAAATCGG", "PBM E-score": 0.198}
{"sequence": "ACCTGTAT", "PBM E-score": -0.26}
{"sequence": "CCGCGTTC", "PBM E-score": 0.198}
{"sequence": "GACGATGA", "PBM E-score": -0.0746}
{"sequence": "CGCGATGC", "PBM E-score": -0.0508}
{"sequence": "CTTCTCCA", "PBM E-score": -0.301}
{"sequence": "CATATCGG", "PBM E-score": 0.404}
{"sequence": "ACAGGTGA", "PBM E-score": -0.256}
{"sequence": "AGGGTCCG", "PBM E-score": 0.281}
{"sequence": "AGTTCCCA", "PBM E-score": -0.0439}
{"sequence": "CAGGACGC", "PBM E-score": -0.246}
{"sequence": "TGTGTCAA", "PBM E-score": -0.185}
{"sequence": "CAAATATA", "PBM E-score": -0.126}
{"sequence": "CCCACACA", "PBM E-score": -0.235}
{"sequence": "ACGACCTG", "PBM E-score": -0.39}
{"sequence": "AAGTGAGC", "PBM E-score": -0.195}
{"sequence": "TAAGCCGA", "PBM E-score": 0.382}
{"sequence": "GGGGATGA", "PBM E-score": 0.0741}
{"sequence": "GTAAGCTA", "PBM E-score": -0.0304}
{"sequence": "ATAAACCC", "PBM E-score": 0.324}
{"sequence": "CAAACAAC", "PBM E-score": 0.0116}
{"sequence": "ACTTCTGA", "PBM E-score": -0.288}
{"sequence": "ACTACCTC", "PBM E-score": -0.0151}
{"sequence": "CCTGATGA", "PBM E-score": -0.0267}
{"sequence": "AAGAATCG", "PBM E-score": 0.228}
{"sequence": "GACAACGC", "PBM E-score": -0.0853}
{"sequence": "ACTTCGTA", "PBM E-score": -0.105}
{"sequence": "AGCGTCAG", "PBM E-score": -0.228}
{"sequence": "ACTTACCC", "PBM E-score": 0.0578}
{"sequence": "ACCTCGCG", "PBM E-score": 0.0854}
{"sequence": "CTCTTTGA", "PBM E-score": -0.237}
{"sequence": "GCCACCCA", "PBM E-score": -0.18}
{"sequence": "ATCAATTG", "PBM E-score": -0.129}
{"sequence": "ATGAAGGA", "PBM E-score": -0.201}
{"sequence": "CCGTTGCA", "PBM E-score": 0.024}
{"sequence": "ACGTGCAG", "PBM E-score": -0.17}
{"sequence": "CAATTGAA", "PBM E-score": -0.185}
{"sequence": "GTTATGAA", "PBM E-score": -0.0689}
{"sequence": "ACCTACCG", "PBM E-score": 0.0327}
{"sequence": "CGCTGAAG", "PBM E-score": -0.0641}
{"sequence": "AACTCCTT", "PBM E-score": 0.123}
{"sequence": "GAGTCATC", "PBM E-score": -0.00435}
{"sequence": "CTGGATGC", "PBM E-score": -0.163}
{"sequence": "TTCCGGAA", "PBM E-score": 0.466}
{"sequence": "CAAAGAAA", "PBM E-score": -0.121}
{"sequence": "GACTGACA", "PBM E-score": -0.16}
{"sequence": "AAATCCGT", "PBM E-score": 0.396}
{"sequence": "GACTCTCC", "PBM E-score": -0.046}
{"sequence": "AGAGTCCA", "PBM E-score": -0.195}
{"sequence": "ATTCGGTG", "PBM E-score": 0.18}
{"sequence": "AAGCTACT", "PBM E-score": -0.172}
{"sequence": "CTACCGGC", "PBM E-score": 0.29}
{"sequence": "ACCTTGCG", "PBM E-score": -0.0811}
{"sequence": "GCTCCATA", "PBM E-score": -0.0613}
{"sequence": "CGTGCTCC", "PBM E-score": 0.0979}
{"sequence": "ATTATCGG", "PBM E-score": 0.432}
{"sequence": "GGGAGTCA", "PBM E-score": -0.0723}
{"sequence": "ACCCCGGG", "PBM E-score": 0.357}
{"sequence": "GACAGAAC", "PBM E-score": -0.0791}
{"sequence": "CTGCAAGA", "PBM E-score": -0.213}
{"sequence": "ATAACCAT", "PBM E-score": -0.0972}
{"sequence": "ACCCCATG", "PBM E-score": 0.0378}
{"sequence": "CAGTTGCG", "PBM E-score": -0.0193}
{"sequence": "AAGCTAAA", "PBM E-score": -0.173}
{"sequence": "ACAGTTTG", "PBM E-score": -0.102}
{"sequence": "ATTTTGAG", "PBM E-score": -0.00938}
{"sequence": "CGGTCACC", "PBM E-score": 0.149}
{"sequence": "AGCGGGCA", "PBM E-score": 0.104}
{"sequence": "ACTGTACG", "PBM E-score": -0.167}
{"sequence": "AGCCTATC", "PBM E-score": -0.0579}
{"sequence": "CAAGCCAG", "PBM E-score": -0.235}
{"sequence": "CAAATGGA", "PBM E-score": 0.0555}
{"sequence": "CCGTACAA", "PBM E-score": 0.103}
{"sequence": "CGAGCCAG", "PBM E-score": 0.192}
{"sequence": "AATCCACC", "PBM E-score": 0.0742}
{"sequence": "ACACTGGT", "PBM E-score": -0.212}
{"sequence": "ATAACGTG", "PBM E-score": -0.072}
{"sequence": "ATATGAAG", "PBM E-score": -0.0806}
{"sequence": "ATGTGCAA", "PBM E-score": -0.14}
{"sequence": "CACTAGCC", "PBM E-score": 0.102}
{"sequence": "CACAAAAA", "PBM E-score": -0.0265}
{"sequence": "AAAGTTAG", "PBM E-score": -0.019}
{"sequence": "ATGTCGCC", "PBM E-score": "3e-05"}
{"sequence": "CATACCAG", "PBM E-score": -0.0971}
{"sequence": "GCTGGTTA", "PBM E-score": -0.151}
{"sequence": "GCGCCCCA", "PBM E-score": 0.0553}
{"sequence": "AACAGCTC", "PBM E-score": -0.0254}
{"sequence": "TAAGTAAA", "PBM E-score": -0.0948}
{"sequence": "AGGAAATG", "PBM E-score": -0.192}
{"sequence": "AACCGCCT", "PBM E-score": 0.158}
{"sequence": "ACGATTAT", "PBM E-score": 0.145}
{"sequence": "AGCAGGTG", "PBM E-score": -0.112}
{"sequence": "AGTATTTG", "PBM E-score": -0.169}
{"sequence": "GATGACGC", "PBM E-score": -0.0801}
{"sequence": "AGAGCAAC", "PBM E-score": -0.317}
{"sequence": "CGCATGGC", "PBM E-score": 0.184}
{"sequence": "GAAAGACA", "PBM E-score": -0.0415}
{"sequence": "CGGCAATC", "PBM E-score": 0.284}
{"sequence": "CTCATTCC", "PBM E-score": 0.139}
{"sequence": "ACATACCA", "PBM E-score": -0.0949}
{"sequence": "GGTCGGGA", "PBM E-score": 0.277}
{"sequence": "AACGTTAT", "PBM E-score": -0.0186}
{"sequence": "ATTGCGGG", "PBM E-score": 0.273}
{"sequence": "CCGGATCG", "PBM E-score": 0.347}
{"sequence": "ACGTAACT", "PBM E-score": -0.21}
{"sequence": "AAGACCGA", "PBM E-score": 0.413}
{"sequence": "AGCGCTAT", "PBM E-score": 0.0782}
{"sequence": "CGTTCTGA", "PBM E-score": -0.0496}
{"sequence": "GCAGTTCA", "PBM E-score": -0.0429}
{"sequence": "AGAACTCG", "PBM E-score": 0.0147}
{"sequence": "CAGGTTTC", "PBM E-score": -0.054}
{"sequence": "CCGGGTTA", "PBM E-score": 0.37}
{"sequence": "AGTCACGA", "PBM E-score": -0.166}
{"sequence": "CGTTACTA", "PBM E-score": -0.037}
{"sequence": "CCGGAGGC", "PBM E-score": 0.286}
{"sequence": "CTCTCACA", "PBM E-score": -0.193}
{"sequence": "GTGTGCCA", "PBM E-score": -0.0579}
{"sequence": "CTGTGAGA", "PBM E-score": -0.277}
{"sequence": "AAGCGCTC", "PBM E-score": 0.0583}
{"sequence": "ATTCCTAC", "PBM E-score": -0.115}
{"sequence": "AAGTCAAT", "PBM E-score": -0.106}
{"sequence": "ATTATCCG", "PBM E-score": 0.391}
{"sequence": "TCAAACGA", "PBM E-score": -0.155}
{"sequence": "GACATATA", "PBM E-score": 0.0307}
{"sequence": "ATTCATTC", "PBM E-score": -0.019}
{"sequence": "CATTTTAC", "PBM E-score": 0.15}
{"sequence": "AGGCCCCT", "PBM E-score": -0.0673}
{"sequence": "TACTGCGA", "PBM E-score": -0.167}
{"sequence": "CACGGACA", "PBM E-score": 0.312}
{"sequence": "GAGACTTA", "PBM E-score": -0.147}
{"sequence": "AGCCATAA", "PBM E-score": -0.151}
{"sequence": "AGACATCC", "PBM E-score": -0.03}
{"sequence": "CTCCATGA", "PBM E-score": -0.0786}
{"sequence": "AAGCGTAA", "PBM E-score": 0.0257}
{"sequence": "CTTATGCA", "PBM E-score": -0.246}
{"sequence": "GTAAGTAC", "PBM E-score": 0.0984}
{"sequence": "CTTCGGCA", "PBM E-score": 0.264}
{"sequence": "AGGTTCTC", "PBM E-score": 0.0465}
{"sequence": "ACCAAATC", "PBM E-score": -0.146}
{"sequence": "AGATTACC", "PBM E-score": -0.00083}
{"sequence": "AGTGAGGC", "PBM E-score": -0.0972}
{"sequence": "CCACCCAC", "PBM E-score": -0.127}
{"sequence": "GCCTGCTA", "PBM E-score": -0.152}
{"sequence": "AGCACGAA", "PBM E-score": 0.0609}
{"sequence": "TAATTGCA", "PBM E-score": -0.0806}
{"sequence": "ATACCGCC", "PBM E-score": 0.291}
{"sequence": "GTCTTGTA", "PBM E-score": -0.123}
{"sequence": "ATCTGGCC", "PBM E-score": 0.127}
{"sequence": "GTCTAGAC", "PBM E-score": -0.269}
{"sequence": "CCTCCCAC", "PBM E-score": -0.0529}
{"sequence": "TAATGGTA", "PBM E-score": -0.0142}
{"sequence": "TAGTAACA", "PBM E-score": -0.088}
{"sequence": "AAATTGTA", "PBM E-score": -0.104}
{"sequence": "ACGAGTTA", "PBM E-score": -0.15}
{"sequence": "CCCCAAGA", "PBM E-score": -0.0568}
